In the RNAGym collection of RNA variant scans (doi:10.1093/nar/gkz1192):
Read counts are not given, so values of variants with three or more changes are uncertain.

B1: CPEB3 Ribozyme (parent)
chain: UAACAGGGGGCCACAGCAGAAGCGUUCACGUCGCAGCCCCUGUCAGAUUCUGGUGAAUCUGCGAAUUCUGCUGUAUAUCUC

Variants of: B1
Test: self-cleavage, relative activity (ratio to wild type); higher = more cleavage; in vitro, sequencing
Summary of the method: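 CPEB3 self-cleaving ribozyme mutant libraries were made by rounds of error-prone PCR, barcoded, and transcribed in vitro with T7 RNA polymerase for 5 hours at 37°C. Cleavage occurred during transcription and a 15 min DNase I step before EDTA stop. RNAs were reverse transcribed with template switching and Illumina-sequenced, with DNA sequencing mapping barcodes to variants. Relative activity is the variant's cleaved/total read fraction divided by wild type's (minimum 5 reads), averaged across three batches.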
For C23G C59A A64G C68A, the self-cleavage was 0.16. With C23G U25A A45U C62A A64G the self-cleavage was 0.09. Work on C23G U25C C38G yielded a self-cleavage of 0.08. For C23G U25C U26C A35G U72A A75G U80C, the self-cleavage was 0.09. In the case of C23G U25C U43C U69C, the self-cleavage is reported as 0.11. Work on C23G U25G U48A yielded a self-cleavage of 0.11. With C23G U26C A57G U58C U76C the self-cleavage was 0.06. In the case of C23G U26C C38U U43C U54A A57U A75G, the self-cleavage is reported as 0.06. For C23G U48C U49A A64G, the self-cleavage was 0.44. Work on C23G U48C U51A U54A C68G yielded a self-cleavage of 0.09. For C23G U51C A56U U69A, the self-cleavage was 0.09. For C23G U66C U69G A77C, the self-cleavage was 0. C23G U67C U76C gave a self-cleavage of 0.09. With C23U A28G C39U U48C U74C the self-cleavage was 0.08. For C23U A28U U66A, the self-cleavage was 0.12. C23U A35C U41C U69C gave a self-cleavage of 0.08. For C23U A35G U41C U54C, the self-cleavage was 0.62. C23U A35G U72C A77U gave a self-cleavage of 0.95. For C23U A35U G46C U48C U54C A65G U80C, the self-cleavage was 0.05. Variant C23U A35U U43C U49C U67C U69C U80C has a self-cleavage of 0.07. Work on C23U A45G G73U yielded a self-cleavage of 0.69. C23U A45G U49A C62A U74C showed a self-cleavage of 0.18. Work on C23U A45G U60A yielded a self-cleavage of 0.16. Variant C23U A47G A56G has a self-cleavage of 0.16. For C23U A47G A56G U69C U76C, the self-cleavage was 0.07. Work on C23U A47G U69C U76C yielded a self-cleavage of 0.11. For C23U A47G U72A, the self-cleavage was 0.52. Variant C23U A57G A65G has a self-cleavage of 0.23. Variant C23U A57G U60A has a self-cleavage of 0.24. For C23U A64U U72A, the self-cleavage was 0.1. C23U C29A U54C U76C gave a self-cleavage of 0.08. For C23U C29U U67C G70A U78C C81U, the self-cleavage was 0.06. In the case of C23U C38G C81U, the self-cleavage is reported as 0.19. Work on C23U C38U A64G A65G U66C U72C yielded a self-cleavage of 0.06. With C23U G30A A64G U66C U80C the self-cleavage was 0.09. Work on C23U U25G U69C U72C A77U U80C yielded a self-cleavage of 0.04. With C23U U26C A47G the self-cleavage was 0.46. C23U U26C U49C A56U U60C showed a self-cleavage of 0.08. Variant C23U U26C U51C A56G U76C U78A has a self-cleavage of 0.04. In the case of C23U U26C U54C U60C U67C U76A A77U, the self-cleavage is reported as 0.04. Work on C23U U31C A35G U51A U76A yielded a self-cleavage of 0.76. For C23U U31C U80A, the self-cleavage was 0.59. In the case of C23U U41A A64G, the self-cleavage is reported as 0.3. In the case of C23U U41A A64U U66A, the self-cleavage is reported as 0.09. In the case of C23U U41C A57U, the self-cleavage is reported as 0.09. Variant C23U U41C A65G has a self-cleavage of 0.23. C23U U41C U49A showed a self-cleavage of 0.19. In the case of C23U U41C U67A A77G, the self-cleavage is reported as 0.06. Work on C23U U41C U69C U80C yielded a self-cleavage of 0.07. C23U U43A A56U U74C gave a self-cleavage of 0.24. C23U U51C U54C A56G A57G C68G showed a self-cleavage of 0.06. With C23U U76C A77U the self-cleavage was 0.23. With G24A A28C G42U C71U the self-cleavage was 0.1. G24A A28G C38G U66C C68A U69C U72C showed a self-cleavage of 0.18. With G24A A28G U41C U80C the self-cleavage was 0.28. With G24A A28G U49C the self-cleavage was 0.13. G24A A28U U49C U54A U78C gave a self-cleavage of 0.1. In the case of G24A A28U U69C, the self-cleavage is reported as 0.11. G24A A35G U76A showed a self-cleavage of 0.27. G24A A35U C40U A45G U67C A75G U78C showed a self-cleavage of 0.17. G24A A35U U49C showed a self-cleavage of 0.15. G24A A45U U60A gave a self-cleavage of 0.19. Variant G24A A45U U72A A77U U80C has a self-cleavage of 0.1. For G24A A47G U54C, the self-cleavage was 0.39. Variant G24A A47U C71A U78G has a self-cleavage of 0.08. With G24A A56U C59U the self-cleavage was 0.16. G24A A57U G63C U72C U80A gave a self-cleavage of 0.05. G24A A65G U72C showed a self-cleavage of 0.21. Variant G24A C38U A75U has a self-cleavage of 0.15. With G24A C44G C50U U66C the self-cleavage was 0.06. With G24A G30A U31C A65G the self-cleavage was 0.22. In the case of G24A G36A U41C U43C A57G U58C, the self-cleavage is reported as 0.09. In the case of G24A U25C A45G G63U A77G, the self-cleavage is reported as 0.07. In the case of G24A U26A U31C, the self-cleavage is reported as 0.09. G24A U26A U66G gave a self-cleavage of 0.27. Work on G24A U26C A35G A64G U78C yielded a self-cleavage of 0.13. G24A U26C C38A U48C U66C showed a self-cleavage of 0.1. For G24A U26C C40U U54A U72C, the self-cleavage was 0.08. Work on G24A U31A A56G U72C yielded a self-cleavage of 0.09. For G24A U31A U48C A56G A75C, the self-cleavage was 0.17. In the case of G24A U31C C39A A56G U60A A64G, the self-cleavage is reported as 0.05. In the case of G24A U41C C59A, the self-cleavage is reported as 0.12. G24A U41C U51G A64G U69C gave a self-cleavage of 0.05. In the case of G24A U41G U69C U74A, the self-cleavage is reported as 0.15. In the case of G24A U43C A56G A64U, the self-cleavage is reported as 0.07. G24A U49C U72A showed a self-cleavage of 0.11. With G24A U51A U69C the self-cleavage was 0.08. G24A U51A U72C showed a self-cleavage of 0.18. With G24A U54C A56G the self-cleavage was 0.09. G24A U60C U72A showed a self-cleavage of 0.11. G24C A28U G36C U66C gave a self-cleavage of 0.17. G24C C29A A65G gave a self-cleavage of 0.16. For G24C C34G U78C, the self-cleavage was 0.19. With G24C G33C C50U U54C U60C the self-cleavage was 0.12. For G24C G36A C37U U67C, the self-cleavage was 0.12. Variant G24C G36C U74C A75G has a self-cleavage of 0.04. G24C G36U A47U U51C gave a self-cleavage of 0.02. In the case of G24C G52A U58C U80C, the self-cleavage is reported as 0.2. Variant G24C U26C A35G U78C has a self-cleavage of 0.06. G24C U31A G73U U80A gave a self-cleavage of 0.07. G24C U31C U41A A47U U74C gave a self-cleavage of 0.06. G24C U31C U41A U72C U74C U76C showed a self-cleavage of 0.16. In the case of G24C U49C U78G, the self-cleavage is reported as 0.22. Variant G24C U74C A75G has a self-cleavage of 0.29. For G24U A28G U58A U72A U78A, the self-cleavage was 0.08. For G24U A35G C37U U48C U60C U69C, the self-cleavage was 0.12. In the case of G24U A35G U72C, the self-cleavage is reported as 0.84. G24U A45U U58A A64U showed a self-cleavage of 0.1. G24U C38U U54C gave a self-cleavage of 0.12. In the case of G24U U25C A35U U43C A77G, the self-cleavage is reported as 0.2. Variant G24U U25C U43C C44U U60C has a self-cleavage of 0.22. G24U U26A U31C U43A U54C gave a self-cleavage of 0.15. With G24U U31C A35G U41A U49C U51A U69A the self-cleavage was 0.11. Work on G24U U41G A77G yielded a self-cleavage of 0.11. With G24U U66C C71A the self-cleavage was 0.09. G24U U67A A75G gave a self-cleavage of 0.14. For G24U U67C G70U, the self-cleavage was 0.13. Variant U25A A28C U41C A45G U69G has a self-cleavage of 0.12. For U25A A28C U69A, the self-cleavage was 0.33. For U25A A28U A45U U80G, the self-cleavage was 0.19. U25A A28U U60C showed a self-cleavage of 0.13. For U25A A35G C38G C62G, the self-cleavage was 0.29. For U25A A35G U58C, the self-cleavage was 0.13. With U25A A35G U72C U80A the self-cleavage was 0.39. Variant U25A A45C U51A has a self-cleavage of 0.22. U25A A47G U54A gave a self-cleavage of 0.11. U25A A57G A64G gave a self-cleavage of 0.62. U25A A77U U78C showed a self-cleavage of 0.22. Variant U25A C27A U49A A65G has a self-cleavage of 0.08. Variant U25A C27U A35C U60A C62U has a self-cleavage of 0.07. For U25A C29A C79A, the self-cleavage was 0.21. With U25A C32A U43A U78G the self-cleavage was 0.22. U25A C32U A45G U49A U60A U72C gave a self-cleavage of 0.14. Work on U25A C39A G46C U48A U58A G73U yielded a self-cleavage of 0.35. U25A C40U U48C gave a self-cleavage of 0.15. Variant U25A C50G U58A U66C U80A has a self-cleavage of 0.05. For U25A C59U A77G, the self-cleavage was 0.14. In the case of U25A C62U U78C, the self-cleavage is reported as 0.07. Work on U25A G30A A45G U51C U72C A77U yielded a self-cleavage of 0.15. U25A G33A C39A U54C A64G showed a self-cleavage of 0.11. U25A G36A U49C U51C A56G gave a self-cleavage of 0.16. For U25A G36U U54G A65U A75U U76A, the self-cleavage was 0.06. For U25A G36U U69C, the self-cleavage was 0.11. U25A G42U U43C A56G U58C gave a self-cleavage of 0.1. U25A G52A U60C A65U U67A gave a self-cleavage of 0.06. Variant U25A G52A U76C has a self-cleavage of 0.51. For U25A G52U U60C, the self-cleavage was 0.12. Work on U25A G63A A64G yielded a self-cleavage of 0.16. For U25A U26A U48C G63U U72A, the self-cleavage was 0.06. For U25A U26C U43A A56G A57G U58C A64U, the self-cleavage was 0.06. For U25A U26C U51A, the self-cleavage was 0.47. U25A U31A C40U U48C U72A U76C showed a self-cleavage of 0.09. Variant U25A U31C U41C U58A A64G has a self-cleavage of 0.06. With U25A U31C U51C A56G U76A U78C the self-cleavage was 0.08. U25A U41A U43A U48A gave a self-cleavage of 0.15. In the case of U25A U41C A45U, the self-cleavage is reported as 0.28. With U25A U41C A65G the self-cleavage was 0.49. In the case of U25A U41C G42A A64U A75U, the self-cleavage is reported as 0.11. With U25A U41C U60C U69C U74C the self-cleavage was 0.08. For U25A U41C U80C, the self-cleavage was 0.33. With U25A U43A A57G U78C the self-cleavage was 0.09. With U25A U43C A45C U60A the self-cleavage was 0.19. For U25A U43C A56G U69C, the self-cleavage was 0.08. For U25A U43C A57G, the self-cleavage was 0.08. U25A U43C U48A gave a self-cleavage of 0.06. U25A U43C U48C U67C U80A showed a self-cleavage of 0.09. Work on U25A U43C U76C yielded a self-cleavage of 0.27.
